The source of these data is article PMC12136788.

T1: UNK ZnF1-3 (human, UniProt Q9C0B0 31-174)
T1 sequence: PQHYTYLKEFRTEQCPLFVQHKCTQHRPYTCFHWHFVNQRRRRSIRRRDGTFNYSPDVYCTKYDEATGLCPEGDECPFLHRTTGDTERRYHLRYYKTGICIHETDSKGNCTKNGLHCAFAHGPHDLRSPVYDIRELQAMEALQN

B1: chr11:23187360:23187361:+_ENSMUSG00000020290_ENSMUST00000020538|mus_hu|motif|central (ssRNA)
RNA: GGGAGUUCUACAGUCCGACGAUCGCUCACCCAACCAGAUAUUAACUUUAAAGUUUCCCUUUUUACAGUUCGCAUACUUCGGAUCAAUGGUUGCUUUGUAACCAUUUCACCAUUAGCUUGGAUAGCUGCAGAAAUAUUUUCACUCAACAGAGGAUUGAGCAUCA
B2: 76570884_76571639_1238_3pUTR_ENSG00000138757_ENST00000395719|human|control|control (ssRNA)
RNA: GGGAGUUCUACAGUCCGACGAUCGGUUUUGCAAUUAAGAUUCUCUGAACUGGUUCAGAGUCAUCAAAAACCACAAAACCAAAAUUUGGAAGCUUUCCCCCAACACCCUUGGUAUUGAUGCGAAGUUCCACAACGUUUCCAAAACAACAGAGGAUUGAGCAUCA
B3: chr7:52357369:52357370:-_ENSMUSG00000003420_ENSMUST00000003512|mus_mus|FALSE|FALSE (ssRNA)
RNA: GGGAGUUCUACAGUCCGACGAUCGUGGCCUAGCAGUCGCUCCGGACAAGAGUUUAGCAGGAACUCGCUCUCCUUCCUGGCCGCAUCAGGCUGCUUCAUCCACAGAUUAGCAACGAUUUCCGUCUCAGGCCACUCCCCAGUCCACAACAGAGGAUUGAGCAUCA
B4: chr1:90180419:90180420:+_ENSG00000171488_ENST00000370454|hu_mus|FALSE|FALSE (ssRNA)
RNA: GGGAGUUCUACAGUCCGACGAUCAGCCCGGCAGUCUCCCAGCUCGGGAGGGAGGACUUCAAAGUGAUUGCCUUUGAUGUCUAAGUAGGAAAGAAAUAGUAGAUUUCCAAUUUUUGGUGAAAGUACGGAGAGGCUGUUUUUCCCCAACAGAGGAUUGAGCAUCA
B5: chr4:144460044:144460045:+_ENSG00000153147_ENST00000283131|hu_mus|hu_hu_hu_mus_False|1_48 (ssRNA)
RNA: GGGAGUUCUACAGUCCGACGAUCACGGUCCAUAGCCUGAAGAUCAACUUGCGGAUUCCAAUCUGAGUCAUAUAAAAUGACUACAUCAGCAGUCGCAAGAUUGAUGCCCAGACCACCAGCACGUGUGCUUAGCAUAAAAACAAACAACAGAGGAUUGAGCAUCA
B6: chr1:244855233:244855234:+_ENSG00000121644_ENST00000302550|hu_mus|hu_hu_hu_mus_True|28_78 (ssRNA)
RNA: GGGAGUUCUACAGUCCGACGAUCCAUCAGAUGGUAGGCGUUGCCCUUAUACUCUUUUCCCAGUUCUUCUACAAUUUUCUCUAUAUCAUCUUCUAGAAAGUCCGUACUCCCUAAAACAACAGCUUCUUUAAAUUUAAAUGUUUCCAACAGAGGAUUGAGCAUCA
B7: 15614295_15614415_1460_CDS_ENSG00000151779_ENST00000281513|human|control|control (ssRNA)
RNA: GGGAGUUCUACAGUCCGACGAUCUUCAGUCACCAAGUAAAGGCCCUGUUUUAUAUAACCAAAGUAGCGAGCCUUGGCAGAUAUUUCAUAAUCAGAAUCAGAAUCCUCUUCUCCUUCAUCUUCUUCUCCAGCUCUAGUCUCCAACAACAGAGGAUUGAGCAUCA
B8: chr5:61681977:61681978:+_ENSG00000068796_ENST00000381103|hu_mus|FALSE|FALSE (ssRNA)
RNA: GGGAGUUCUACAGUCCGACGAUCCACUGUCACAGACUUUAGUUCCGUUCAAUUGAUAUGGCACAUCCUGCAAAAUUAACUAGUCACACACAAAAAAAUGUCUCAAAUACAGUAAAAAUGUACACACAGUAAAGGUAAUUUACACAACAGAGGAUUGAGCAUCA
B9: chr13:43497316:43497317:+_ENSMUSG00000063200_ENSMUST00000071926|mus_mus|motif|central (ssRNA)
RNA: GGGAGUUCUACAGUCCGACGAUCCAAACAAAAUAUGUUUAUGAUUUUUAUAAUGAUCCGUUACAAUGAUUUAUCAGUGACGGAAUUUUGAGAAAUGAACCCUCUCUGCACCCAGUAAUCUUAAACUAUGCAUGCAAAAUGCAGCAACAGAGGAUUGAGCAUCA
B10: chr3:179287964:179287965:+_ENSG00000136518_ENST00000429709|hu_mus|FALSE|FALSE (ssRNA)
RNA: GGGAGUUCUACAGUCCGACGAUCCUUGAGUGGUGAGAUGGCCUCCAUGUUCUCCCUGGGCACGCGGAGGGCAUUGGUGUCUAUGUAGUAGGUGGGCCCGCCCUGCUUGCCUUUGUCACCAUCAAUCUCCAUCAUUGUACUUCCCAACAGAGGAUUGAGCAUCA
B11: chr7:135612270:135612271:-_ENSG00000105887_ENST00000393085|hu_mus|hu_hu_hu_mus_False|1_38 (ssRNA)
RNA: GGGAGUUCUACAGUCCGACGAUCGUUUUUUUCUGAGAUGUUAAAUAGUACUUCAGUGGAAAACAAAACUUAACCUUUUAUUAAUGCGUGUUGUACCAGAAAGCAAAAUUUUAGCUUCAUUUAUUCAAAAAUAUUAAGAACAUUCAACAGAGGAUUGAGCAUCA
B12: chr4:17845017:17845018:+_ENSG00000109805_ENST00000514176|hu_mus|hu_hu_hu_mus_False|1_48 (ssRNA)
RNA: GGGAGUUCUACAGUCCGACGAUCGCUCUCUUAACUUGUAUCUUCAUUAAGGAACUCUGCAAGGUUAAGUUUACUUUUCUGUAGCGCGCGGUUUUGGGCUCGUCUGGGUAAUCUCAUCUUCAUUUCUGAUGGUGGUUUGGAACUCAACAGAGGAUUGAGCAUCA
B13: chr11:18536319:18536320:-_ENSG00000074319_ENST00000251968|perfect_dup|FALSE|FALSE (ssRNA)
RNA: GGGAGUUCUACAGUCCGACGAUCUAGGUAGAUUUUCCCAUUUGCAUCCACAUGCUUUCCUGUUUUAAUAGUCAUUGAACUAGUAGGCUUAACAAAACAGAUAGGGGGGUUAUAUGGGUAUGUGUCCAGCAGCCACAGGCAUAUCAACAGAGGAUUGAGCAUCA
B14: chr1:220276048:220276049:+_ENSG00000067704_ENST00000302637|hu_hu|hu_hu_hu_mus_True|1_78 (ssRNA)
RNA: GGGAGUUCUACAGUCCGACGAUCGCAAAUUGCCUGGUUGGCGGGAAUUGUCCAAGGUUGUGUGGUCCAAACUAAAACGCUAACAGGGGAUGAGGCAUCUGUAAGAGACUCCAACUUCGGAGGAGGUCUCAGGAGGGGAAAUUUCAACAGAGGAUUGAGCAUCA

The other results are listed elsewhere or left out.

This assay addresses T1, UNK ZnF1-3. Description: nsRBNS (natural sequence RNA bind-n-seq); RBNS binding buffer (assumed for nsRBNS): 25 mM Tris pH 7.5, 150 mM KCl, 3 mM MgCl2, 0.01% Triton X-100, 500 ug/ml BSA, 20 U/ml SUPERase-In, 4 C; UNK is unkempt and MSI1 is Musashi-1; names of the RNAs are library labels; protein concentration not given here; high values mean tight binding.
Turning to B1, the binding signal turned out to be 0.481 enrichment R.
In the case of B2, the binding signal was 0.635 enrichment R.
On to B3, for which the binding signal worked out at 0.744 enrichment R.
As to B4, the binding signal is 1.97 enrichment R.
With B5, the binding signal was determined as 0.636 enrichment R.
For B6 the value was 1.27 enrichment R; for B7, 1.16 enrichment R; for B8, 1.38 enrichment R.
For B9 the value was 1.03 enrichment R.
Next, B10: 0.675 enrichment R; B11: 1.39 enrichment R; B12: 0.405 enrichment R.
B13 displayed a binding signal of 0.683 enrichment R.
Next, B14: 1.98 enrichment R.
